Assay results as given in PubChem BioAssay AID1508642 (National Center for Advancing Translational Sciences (NCATS), 2021).
Among all 43,000 compounds or so, about 200 (0.47%) were called active. About 12% were inconclusive and are not listed. Calls come from the whole dose curve; as a rule, active = well fitted cell-killing curve with a large enough effect; inconclusive = small, poorly fitted or top-dose-only effect, or effect the other way; inactive = flat fitted curve, though single readings scatter. Some of the results follow.

test: Cell viability qHTS assay in S16 Pmp22-F2sN cells; details: S16 Pmp22-F2sN Schwann cells (luciferase reporters placed in the Pmp22 gene) viability, CellTiter-Glo, 24 h; series mostly up to 57.5 µM; activity change, negative = cytotoxicity: at the top concentration; note: nearly all actives have a fitted effect of over 65% in size
In short: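 CellTiter-Glo counter-screen, qHTS, 1536-well. Cells: S16(c9) Pmp22-F2sN, 500-1,000/well in DMEM + 10% FBS. Cpd 23 nL pin transfer, 24 h, 37C/5% CO2. Read: luminescence, CCD imager.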
% is set by controls: 0 for no effect and ±100 for the full control effect.

Compound	activity change, negative = cytotoxicity
CCOC(=O)c1c(C)[nH]c(C)c1S(=O)(=O)NCC(=O)N1CCN(c2cccc(C)c2)C(C)C1 (stereo unspecified)	inactive: 1.17%
Cc1cc(O)c(C(c2ccccc2)N2CCN(C)CC2)c(=O)n1Cc1ccco1 (stereo unspecified)	inactive: 13.6%
O=C(Nc1ccccc1)N(Cc1ccc(F)cc1)c1ccccn1	inactive: 11.9%
C=Cc1ccc(CN2C(=O)c3ccccc3Sc3ccc(C(=O)OCc4ccco4)cc32)cc1	inactive: 9.73%
COc1ccc(-c2noc(CN(C(C)C)S(=O)(=O)c3ccc(Br)cc3)n2)cc1	inactive: 2.23%
CC1=C(C(=O)N2CCN(c3cccc(C)c3C)CC2)C2(CCCCC2)OC1=O	inactive: -0.331%
Cc1ccc2c(c1)c1c(c(=O)n(Cc3ccccc3)c(=O)n1CC(=O)NCc1ccccc1Cl)n2C	inactive: -0.14%
O=S(=O)(c1ccc2c(c1)CCN2)N1CCCCCC1	inactive: -14%
CCC(C)OC(=O)/C(C#N)=C\c1ccc(-c2cccc(C(F)(F)F)c2)o1 (stereo unspecified)	inactive: -3.93%
Cc1cccc(C)c1Nc1nc2ccccc2nc1NS(=O)(=O)c1ccccc1	inactive: -4.07%
CCc1ccc(NCc2cc3cc(OC)c(OC)cc3n(CC(=O)Nc3cc(C)ccc3C)c2=O)cc1	inactive: 8.45%
CN(C(=O)CN1C(=O)CCSc2ccc(S(=O)(=O)N3CCCC3)cc21)c1ccccc1	inactive: 12.8%
COc1ccc(-c2noc(CSc3nnc(-c4ccncc4)n3-c3ccc(C)cc3)n2)cc1	inactive: -23%
CCc1ccc(Sc2cc(C(=O)NC(C)CC)c3ccccc3n2)cc1 (stereo unspecified)	inactive: -6.04%
COc1cccc(NC(=O)c2cnn(-c3ccccc3)c2-n2cccc2)c1	inactive: 7.37%
CCOc1ccc(OCC(=O)Nc2nnc3n2CCS3)cc1	inactive: 7.93%
COc1ccccc1-n1c(/C=C/c2c(C)n(C)c3ccccc23)nc2ccccc2c1=O	inactive: 5.17%
CCOC(=O)C(Cc1c[nH]c2ccccc12)NC(=O)COc1ccc(Cl)c(C)c1 (stereo unspecified)	inactive: 2.98%
COc1cccc(CNC(=O)C2CCC(CNS(=O)(=O)c3ccc(Br)s3)CC2)c1 (stereo unspecified)	inactive: -1.95%
CCOc1nc(NC(=O)NS(=O)(=O)Oc2ccccc2)nc(-c2ccccc2)n1	inactive: 1.61%
CCOc1ccc(Sc2cc(C(=O)NCCc3ccccc3)c3ccccc3n2)cc1	inactive: 0.653%
COc1ccccc1CNc1ccc(-c2nc(-c3ccncc3)no2)cc1[N+](=O)[O-]	inactive: 5.05%
COc1ccc(CNC(=O)CC(c2ccc(OC)c(OC)c2)N2Cc3ccccc3C2=O)cc1 (stereo unspecified)	inactive: 3.52%
CCOc1ccc(NC(=O)CSC2=Nc3ccccc3C3=NC(CC(=O)NCc4ccco4)C(=O)N23)cc1 (stereo unspecified)	inactive: 6.67%

Compound	activity change, negative = cytotoxicity
Cc1cc2ccccc2n1CCNC(=O)c1cccc(Cl)c1	inactive: 13.7%
CCOC(=O)c1sc2ncn(CC(=O)Nc3ccc(C)cc3Br)c(=O)c2c1C	inactive: -0.795%
Cc1ccc(N(CC(=O)Nc2ccc(C)c(F)c2)S(=O)(=O)c2c(C)n[nH]c2C)cc1	inactive: -2.99%
COc1ccc(C)cc1NC(=O)Cn1c(=O)ccc2cc(S(=O)(=O)N3CCCC3)ccc21	inactive: 2.94%
CSc1cccc(NC(=O)N2CCN(c3cc(-c4noc(C)n4)ccc3C)CC2)c1	inactive: 1.1%
CCOc1ccc(NC(=O)CSc2cn(CC(=O)N3CCCCCC3)c3ccccc23)cc1	inactive: -0.741%
CCOC(=O)c1c(C)[nH]c(C)c1S(=O)(=O)N1CCCC(C(=O)Nc2ccc(F)cc2F)C1 (stereo unspecified)	inactive: 16.8%
O=C(NC1CCCCCC1)c1ccc2c(c1)sc1nc(-c3ccccc3)cn12	inactive: 5.5%
COc1cc(C2CC(=O)N(c3ccccc3)C3=C2C(=O)OC3)cc(OC)c1OC (stereo unspecified)	inactive: -0.932%
CCN1CCN(c2ncnc3c2cnn3-c2ccc(C)cc2)CC1	inactive: 6.17%
C=C(C)CSc1nc2sc3c(c2c(=O)n1-c1ccccc1)CCC(C)C3 (stereo unspecified)	inactive: 6.95%
CCc1cccc2c(-c3ccc(F)cc3)nc(SCC(=O)Nc3ccccc3)nc12	inactive: 8.49%
COc1ccc(C(=O)Nc2ccc(-c3cc4ccccc4oc3=O)c(C)c2)cc1OC	inactive: -2.84%
COc1ccc(CCNC(=O)c2ccc(CS(=O)(=O)Cc3cccc(C)c3)o2)cc1OC	inactive: -8.88%
CCN1CCN(C(c2ccc(F)cc2)c2c(O)cc(C)n(CCOC)c2=O)CC1 (stereo unspecified)	inactive: 6.2%
CCc1ccc(OCCCn2c(-c3ccc(Cl)cc3)nc3ccccc3c2=O)cc1	inactive: -0.707%
Cc1ccc(-c2nc3scc(CCNS(=O)(=O)c4ccc(F)c(C)c4)n3n2)cc1	inactive: -1.96%
CCOc1cccc(CC(=O)N2CCc3c([nH]c4ccccc34)C2c2ccccc2)c1OCC (stereo unspecified)	inactive: -17.2%
CCC1CCCCN1CCCNC(=O)c1ccc2c(c1)N(Cc1ccccc1)C(=O)c1ccccc1S2(=O)=O (stereo unspecified)	inactive: -17.1%
CCn1nc(C)c2c(-c3ccccc3)cc(=O)n(C(C)C(=O)NCc3cccc(OC)c3)c21 (stereo unspecified)	inactive: 9.57%
CCN(CC)c1ccc(CN(C(=O)Cc2coc3ccc(C)cc23)C2CCS(=O)(=O)C2)cc1 (stereo unspecified)	inactive: -8.95%
COc1ccc(C(=O)Nc2cc(C(C)C)c(O)c(S(=O)(=O)c3ccc(Cl)cc3)c2C)cc1	inactive: -6.57%
CCOc1ccccc1CNCc1c(C(=O)O)c(C)n(Cc2ccc(Cl)cc2)c1C	inactive: -21.5%
CCN(Cc1ccccc1)Cc1c(O)ccc2c(=O)c(-c3ccccc3)c(C(F)(F)F)oc12	inactive: 2.59%

Compound	activity change, negative = cytotoxicity
Cc1ccc(Cl)cc1NC(=O)CSc1ccc(C(=O)O)cn1	inactive: 0.715%
CCN(CC)c1ccc(NC(=O)c2cc(C)nc3c2c(C)nn3-c2cccc(F)c2)c(C)c1	inactive: 7.5%
c1ccc(-c2nnc(CN3CCN(c4ccccn4)CC3)o2)cc1	inactive: 4.4%
Cc1ccc(OCC(=O)OCc2cc(=O)n3nc(C4CCCCC4)sc3n2)cc1C	inactive: 2.45%
O=C1CC(c2ccccc2)Sc2nc(-c3ccc(F)cc3)nn21 (stereo unspecified)	inactive: 1.13%
O=C(c1[nH]c2ccccc2c1Sc1ccc(Cl)cc1)N1CCCCC1	inactive: 1.33%
CCC1CN(C(=O)N2CCC(C(=O)NCCc3ccccc3C)CC2)c2ccccc2O1 (stereo unspecified)	inactive: -19.1%
Cc1ccc(C)c(Nc2ncnc3onc(C)c23)c1	inactive: -2.53%
COc1ccc(NC(=O)CCSc2nc(-c3ccco3)cc(C(F)(F)F)n2)cc1	inactive: -3.83%
COc1ccc(NC(=O)CSc2ncccc2C(=O)O)cc1OC	inactive: 3.48%
COc1ccc(-c2nc3cc(C(C)C)ccc3o2)cc1NC(=O)COc1ccc(C)cc1C	inactive: 7.55%
O=C(Cn1c(=O)c2ccccc2n(CC(=O)Nc2ccc(F)cc2F)c1=O)NCCc1ccccc1	inactive: 26.2%
CCN(C(=O)c1cc2c(=O)oc3ccc(C)cc3c2s1)c1cc(OC)ccc1OC	inactive: 1.51%
COc1ccc(CNC(=O)CN2N=C(c3ccccc3)CCC2=O)c(OC)c1	inactive: 12.5%
CCn1c(=O)c(=O)n(CC)c2cc(N3CCCCC3)c(NC(=O)c3ccc(Cl)cc3)cc21	inactive: -0.561%
COCCCNc1nc2cc(OC)c(OC)cc2c2nc(-c3ccccc3)nn12	inactive: 4.22%
Cc1ccccc1N1CC(C(=O)Nc2ccc(Br)cc2)CC1=O (stereo unspecified)	inactive: -0.641%
COc1ccc(C(=O)NCc2nnc(SCC(=O)Nc3ccccc3)n2-c2ccccc2)cc1	inactive: -13.9%
COc1cc(Cl)c(C)cc1NC(=O)c1ccc2c(SCC(=O)O)c3c(nc2c1)CCCC3	inactive: 1.75%
O=C(CSc1n[nH]c(-c2ccccc2)n1)NCCCc1ccccc1	inactive: 10.7%
Cc1ccc(-n2nnc(-c3nsc(NC(=O)c4cccc(Cl)c4)n3)c2C)cc1C	inactive: -23.7%
Cc1nnc(N2CCCC(C(=O)NCc3ccccc3F)C2)c2nn(-c3ccc(Cl)cc3)c(C)c12 (stereo unspecified)	inactive: 9.77%
CC(C)CCNC(=O)c1ccc2c(c1)N(Cc1cccc(Cl)c1)C(=O)c1ccccc1S2	inactive: -10.8%
CCCC(=O)n1nc(-c2ccco2)nc1NCc1ccccc1Cl	inactive: 0.107%

Compound	activity change, negative = cytotoxicity
O=C(Nc1nnc(S(=O)(=O)N2CCOCC2)s1)c1ccccc1Cl	inactive: -7.16%
O=C(Nc1ccc2nc(SCc3ccccc3)sc2c1)c1ccccc1F	inactive: 5.57%
O=C(Nc1ccc(F)c(Cl)c1)c1cc(S(=O)(=O)N2CCc3ccccc3C2)ccc1F	inactive: -8.64%
Cc1ccc(OCC(=O)Nc2ccc3c(c2)nc(CCNC(=O)c2ccco2)n3C)cc1	inactive: 8.11%
COc1ccc(N2CCN(C(=O)CN3C(=O)CSc4c3c(C)nn4-c3ccccc3)CC2)cc1	inactive: 42.5%
CC(=O)Nc1ccc(NC(=O)C2CCCN2S(=O)(=O)c2ccc3c(c2)CCCC(=O)N3)cc1 (stereo unspecified)	inactive: -15.9%
COc1ccc(OC)c(CCNC(=O)c2cc3c(=O)oc4ccc(C)cc4c3s2)c1	inactive: 1.3%
Cc1ccsc1CN(C(=O)c1oc2cc(Br)ccc2c1C)C1CCS(=O)(=O)C1 (stereo unspecified)	inactive: -17%
Cc1cc(C(=O)Nc2ccc(C(C)C)cc2)c2c(C)nn(-c3ccccc3)c2n1	inactive: -0.494%
COC(=O)Cn1c(=O)c2cccn2c2cccnc21	inactive: 7.22%
COc1ccc(Cn2c(=O)c3oc4ccccc4c3n(Cc3cccc(C)c3)c2=O)cc1	inactive: 0.562%
CCOc1ccccc1NC(=O)Cn1cc(C(=O)c2ccc(Cl)cc2)c(=O)c2ccc(C)nc21	inactive: 5.75%
Cc1cccc2c(=O)cc(CSc3ccccc3NC(=O)c3cccc(F)c3)[nH]c12	inactive: -13.3%
COc1ccccc1CNc1ccc(-c2nc(-c3ccco3)no2)cc1[N+](=O)[O-]	inactive: 8.17%
CN(C)CCCN(C(=O)c1ccc2c(c1)OCCO2)c1nc2ccccc2s1	inactive: -0.549%
COc1ccc(NC(=O)Cn2cnc3c(oc4ccccc43)c2=O)cc1OC	inactive: -3.31%
CC(C)NC(=O)C1CCC(Cn2c(=O)c3sccc3n(CC(=O)NCc3ccccc3)c2=O)CC1 (stereo unspecified)	inactive: 25.4%
CCCOc1c(Cl)cc(C(=O)N(Cc2cccc(OC)c2)C2CCS(=O)(=O)C2)cc1Cl (stereo unspecified)	inactive: 5.68%
CCOc1ccc(NC(=O)c2cnc(N3CCCCC3)c3ccccc23)cc1	inactive: -1.74%
CN(c1ccccc1)S(=O)(=O)c1nnc(NC(=O)c2ccccc2)s1	inactive: -2.14%
CCOC(=O)c1c(-c2ccccc2)csc1NC(=O)c1cc(-c2ccc(F)cc2)on1	inactive: 2.83%
O=C(NCc1ccc2c(c1)OCO2)c1ccc2c(c1)N(Cc1ccccc1)C(=O)c1ccccc1S2=O (stereo unspecified)	inactive: -1.39%
COc1cccc(NC(=O)C2CCCN(S(=O)(=O)c3ccc4[nH]c(=O)ccc4c3)C2)c1 (stereo unspecified)	inactive: -2.54%
Cn1cc(C(=O)N2CCN(c3cccc(C(F)(F)F)c3)CC2)c2c3ccccc3n(C)c2c1=O	inactive: -13.7%
